{"sequences": {"note": "The chains behind the UniProt entries cited, without tags or fusion partners. Where a name states a change or a piece, a line headed by the entry shows the natural chain unless it says otherwise.", "UniProt P52129": "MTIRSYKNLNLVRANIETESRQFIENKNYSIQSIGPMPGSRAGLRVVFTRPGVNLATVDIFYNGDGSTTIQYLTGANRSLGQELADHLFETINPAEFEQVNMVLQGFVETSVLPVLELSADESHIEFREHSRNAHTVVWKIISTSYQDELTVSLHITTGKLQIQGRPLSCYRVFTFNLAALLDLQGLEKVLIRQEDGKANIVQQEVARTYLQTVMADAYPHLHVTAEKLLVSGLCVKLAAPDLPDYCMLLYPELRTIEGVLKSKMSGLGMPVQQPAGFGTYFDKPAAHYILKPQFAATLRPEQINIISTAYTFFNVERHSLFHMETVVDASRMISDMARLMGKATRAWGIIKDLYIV"}, "source": "paper PMC5308261", "key": {"[1]": {"target": "T1, His-tagged RnlB antitoxin (Escherichia coli K-12) (UniProt P52130)", "T1 sequence": "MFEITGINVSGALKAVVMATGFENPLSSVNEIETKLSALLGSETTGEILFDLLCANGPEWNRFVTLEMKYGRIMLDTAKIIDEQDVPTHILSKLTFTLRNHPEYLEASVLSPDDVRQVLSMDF", "assay": "pull-down; Ni-NTA agarose pull-down of His-RnlB from extract of ΔrnlAB ΔrnhA cells (no RNase HI) co-expressing a FLAG-tagged RnlA protein (Figure 5A; Figure 5B lane 6 with empty vector pQE80L'); western blot anti-FLAG and anti-His"}, "[2]": {"target": "T1, His-tagged RnlB antitoxin (Escherichia coli K-12)", "assay": "pull-down; Ni-NTA agarose pull-down of His-RnlB from extract of ΔrnlAB cells (endogenous RNase HI present) co-expressing a FLAG-tagged RnlA protein; overnight at 4 °C; washes with 20 mM imidazole; western blot anti-FLAG and anti-His; NRD also tested for independence of RNA (Figure S1B)"}, "[3]": {"target": "T2, His-tagged RNase HI (E. coli) (UniProt P0A7Y4)", "T2 sequence": "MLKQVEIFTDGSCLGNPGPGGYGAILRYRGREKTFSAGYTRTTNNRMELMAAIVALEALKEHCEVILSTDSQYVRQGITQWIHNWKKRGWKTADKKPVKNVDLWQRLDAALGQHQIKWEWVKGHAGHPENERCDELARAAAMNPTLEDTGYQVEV", "assay": "pull-down; Ni-NTA agarose pull-down of His-RNase HI from 1 mg extract of ΔrnlAB ΔrnhA cells co-expressing a FLAG-tagged RnlA protein; overnight at 4 °C; washes with 10 mM Tris-HCl pH 7.5, 10 mM Mg(OAc)2, 30 mM KCl, 0.5 mM DTT, 20 mM imidazole; western blot anti-FLAG and anti-His; NRD also tested with RNase A treatment (Figure S1A)"}}, "note": "Results are given in words; binding and its absence hold for the method and conditions named. In cells and extracts the contact can be indirect. Some entries that bind do so weakly or less than the wild type. Where a sequence is shown, tags or fusion partners need not be part of it.", "data": [{"substance": "FLAG-tagged DBD (Dmd-Binding Domain) of RnlA (from UniProt P52129 198-357) (domain or fragment)", "values": [{"measurement": "binding", "setting": "[1]", "result": "binds"}, {"measurement": "binding", "setting": "[2]", "result": "binds"}, {"measurement": "binding", "setting": "[3]", "result": "no binding"}]}, {"substance": "FLAG-tagged NRD (N-Repeated Domain) of RnlA (from UniProt P52129 91-197) (domain or fragment)", "values": [{"measurement": "binding", "setting": "[1]", "result": "binds weakly"}, {"measurement": "binding", "setting": "[3]", "result": "binds"}]}, {"substance": "FLAG-tagged NTD (N-Terminal Domain) of RnlA (from UniProt P52129 1-90) (domain or fragment)", "values": [{"measurement": "binding", "setting": "[3]", "result": "no binding"}]}, {"substance": "FLAG-tagged NTD-NRD of RnlA (from UniProt P52129 1-197) (domain or fragment)", "values": [{"measurement": "binding", "setting": "[1]", "result": "binds weakly"}, {"measurement": "binding", "setting": "[3]", "result": "binds"}]}]}
